Test results as given in patent publication US20250375499A1 (FLAGSHIP PIONEERING INNOVATIONS VII, published 2025).
Several values for one entry are separate records, joined by “and”; a condition that tells them apart may be missing. Equal entries are not always repeated.

B1: Immunoreceptor inhibitory fusion protein 2 (IIFP-2) (Fc fusion)
chain: [human IgG4 Fc with S228P F234A L235A (EU numbers) and a few adjoining residues left out]GGGGGGGSGGGGSGGGGSSTYRVRSSGLTCSTCPPGTHKERDCSLNTETICKACGEGEYTAHNNSLPKCLACKSCFNATEIETKSCDPTSDTICACREGYSINNLGECN
notes: Mature form without the hIL-2 signal peptide
B2: Immunoreceptor inhibitory fusion protein 32 (IIFP-32) (Fc fusion)
chain: [human IgG4 Fc with S228P F234A L235A (EU numbers) and a few adjoining residues left out]GGGGGGGSGGGGSGGGGSMSTYNTKTSPSLKCDMCPPGYYKHEDCTSNTKTVCSPCGEGEYTAYNNSLTKCLRCSDCYGENEITTKQCTNTSNTVCECMDGYTKDETIDACIK

What was measured:
[1] = biological target: T1, TL1A monomer (Acro Biosystems TLA-H5246) (human, UniProt O95150 72-251, limits assumed); experiment: SPR Biacore T200, IIFP captured by anti-human Fc, TL1A as analyte, 1:1 fit, 25 C
T1 construct: Bought protein; also called Monomer TL1A; monomeric human TL1A
T1 sequence: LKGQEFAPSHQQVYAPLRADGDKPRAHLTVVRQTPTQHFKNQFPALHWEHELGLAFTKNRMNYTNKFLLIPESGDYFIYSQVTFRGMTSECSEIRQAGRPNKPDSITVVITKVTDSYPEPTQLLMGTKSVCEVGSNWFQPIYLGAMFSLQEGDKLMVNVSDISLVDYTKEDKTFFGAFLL

[2] = biological target: T2, TL1A trimer (Acro Biosystems TLA-H5243) (human, UniProt O95150 72-251); experiment: as above
T2 construct: Bought protein; also called Trimer TL1A; trimeric human TL1A
T2 sequence: T1 sequence

[3] = biological target: T3, recombinant human TL1A (Acro Bio TLA-H5244), plate bound (human, UniProt O95150 72-251, limits assumed); experiment: ELISA: plate coated with recombinant human TL1A (2 µg/mL), Fc-tagged protein titrated 2-fold from 20 nM, anti-human Fc HRP, four-parameter fit
T3 construct: Bought protein; also called hTL1A; Tumor Necrosis Factor Ligand Superfamily Member 15
T3 sequence: T1 sequence

[4] = biological target: T3, recombinant human TL1A (Acro Bio …); experiment: ELISA: plate coated with recombinant human TL1A (2 µg/mL), Fc-tagged protein titrated 3-fold from 10 nM, anti-human Fc HRP, OD 450 nm background subtracted
[5] = biological target: T4, recombinant human TNFα (Acro Bio TNA-H5228) (human, UniProt P01375 fragment); experiment: ELISA: plate coated with recombinant human TNFα (2 µg/mL), Fc-tagged protein titrated 3-fold from 10 nM, anti-human Fc HRP, OD 450 nm background subtracted
T4 construct: Bought protein; also called hTNFα
T4 sequence (P01375 77-233 limits assumed): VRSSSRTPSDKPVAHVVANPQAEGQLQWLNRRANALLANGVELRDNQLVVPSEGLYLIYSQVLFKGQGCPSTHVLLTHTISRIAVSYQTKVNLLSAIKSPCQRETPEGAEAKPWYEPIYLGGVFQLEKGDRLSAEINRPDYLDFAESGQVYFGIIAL

[6] = biological target: T5, recombinant human FASL (Acro Bio HAL-H5241) (human, UniProt P48023 134-281, limits assumed); experiment: ELISA: plate coated with recombinant human FASL (2 µg/mL), Fc-tagged protein titrated 3-fold from 10 nM, anti-human Fc HRP, OD 450 nm background subtracted
T5 construct: Bought protein; also called hFASL; FAS Ligand
T5 sequence: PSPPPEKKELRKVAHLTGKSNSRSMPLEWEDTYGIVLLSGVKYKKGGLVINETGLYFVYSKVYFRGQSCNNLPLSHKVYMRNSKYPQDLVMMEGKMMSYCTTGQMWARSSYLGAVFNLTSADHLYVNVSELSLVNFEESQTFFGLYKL

[7] = biological target: T6, recombinant human LIGHT (Acro Bio LIT-H5242) (human, UniProt O43557 83-240, limits assumed); experiment: ELISA: plate coated with recombinant human LIGHT (2 µg/mL), Fc-tagged protein titrated 3-fold from 10 nM, anti-human Fc HRP, OD 450 nm background subtracted
T6 construct: Bought protein; also called hLIGHT; Tumor Necrosis Factor Ligand Superfamily Member 14
T6 sequence (O43557 83-240 limits assumed): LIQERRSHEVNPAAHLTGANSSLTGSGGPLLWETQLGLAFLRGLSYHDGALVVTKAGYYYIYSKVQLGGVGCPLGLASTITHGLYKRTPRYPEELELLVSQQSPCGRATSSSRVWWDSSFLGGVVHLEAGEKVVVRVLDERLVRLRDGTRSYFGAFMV

[8] = biological target: T3, recombinant human TL1A (Acro Bio …); experiment: ELISA, plate-coated recombinant hTL1A (Example 3)

Row | Binder | Kd [1] | koff [1] | kon [1] | Kd [2] | koff [2] | kon [2] | EC50 (read off the curve) [3] [nM] | EC50 (read off the curve) [4] [nM] | binding result [5] | binding result [6] | binding result [7] | EC50 [8]
1 | B1 | > 0.034 nM and < 0.073 nM | > 4.2e-05 s⁻¹ and < 1.7e-05 s⁻¹ | > 520000 M⁻¹ s⁻¹ and < 570000 M⁻¹ s⁻¹ | > 0.011 nM and < 0.015 nM | > 2.9e-05 s⁻¹ and < 2.2e-05 s⁻¹ | > 1.9e+06 M⁻¹ s⁻¹ and < 2.1e+06 M⁻¹ s⁻¹ | ~0.2 | ~0.2 | no binding (tested: 10 nM (LOG[Dose] 1)) | no binding (tested: 10 nM (LOG[Dose] 1)) | no binding (tested: 10 nM (LOG[Dose] 1)) | –
2 | B2 | < 0.071 nM | – | > 730000 M⁻¹ s⁻¹ and < 810000 M⁻¹ s⁻¹ | > 0.005 nM and < 0.008 nM | > 2.5e-05 s⁻¹ and < 1.6e-05 s⁻¹ | > 3.1e+06 M⁻¹ s⁻¹ and < 3.4e+06 M⁻¹ s⁻¹ | ~1 | – | – | – | – | ≥ 0.5 nM and ≤ 1 nM
